# The list shows a part of the results.
# B1: StdA (Salmonella typhimurium), Q8Z3Z0 (protein)
# chain: MAAAGMMYGASVFAADTTPTAGPFGSGKILFTGTITNSPCDIAPGDDAITVPFGQISYRKLNTANATTDSKPFTIHLQNCAFDPNETTIAGSAGKMSKVTVSFSGTADTSGKAYVSTGSAQHVGVQLLKGDNTSLITPNTPMPDGDAQQLQAGNNELNFFARLIALTDAATPGDVNASVTYTLKYL
# How the values were obtained:
# Assay in all cases: glycan array binding signal (z-score within array); higher = stronger binding
# Conditions in all cases: glycan notation: IUPAC condensed, linker removed
# [1] = target: Gal(b1-3)Gal
# Method in brief: (§1)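 Columns mapping to the same glycan were averaged after glycan names were converted to IUPAC-condensed notation. The data come from 3228 arrays in the Consortium for Functional Glycomics database, limited to those with an available protein sequence. Binding is reported as a within-array Z-score averaged across arrays of one protein sequence and across linkers.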
# [2] = target: Gal(b1-3)Gal(b1-4)GlcNAc
# Method in brief: as §1
# [3] = target: Gal(b1-3)Gal(b1-4)GlcNAc(b1-2)Man(a1-3)[Gal(b1-3)Gal(b1-4)GlcNAc(b1-2)Man(a1-6)]Man(b1-4)GlcNAc(b1-4)GlcNAc
# Method in brief: as §1
# [4] = target: Gal(b1-3)GalNAc
# Method in brief: as §1
# [5] = target: Gal(b1-3)GalNAc(a1-3)[Fuc(a1-2)]Gal(b1-4)Glc
# Method in brief: as §1
# [6] = target: Gal(b1-3)GalNAc(a1-3)[Fuc(a1-2)]Gal(b1-4)GlcNAc
# Method in brief: as §1
# [7] = target: Gal(b1-3)GalNAc(b1-3)Gal(a1-4)Gal(b1-4)Glc
# Method in brief: as §1
# [8] = target: Gal(b1-3)GalNAc(b1-4)Gal(b1-4)Glc
# Method in brief: as §1
# [9] = target: Gal(b1-3)GalNAc(b1-4)[Neu5Ac(a2-3)]Gal(b1-4)Glc
# Method in brief: as §1
# [10] = target: Gal(b1-3)GlcNAc
# Method in brief: as §1
# [11] = target: Gal(b1-3)GlcNAc(b1-2)Man(a1-3)[Gal(b1-3)GlcNAc(b1-2)Man(a1-6)]Man(b1-4)GlcNAc(b1-4)GlcNAc
# Method in brief: as §1
# [12] = target: Gal(b1-3)GlcNAc(b1-2)Man(a1-3)[Gal(b1-3)GlcNAc(b1-2)Man(a1-6)]Man(b1-4)GlcNAc(b1-4)[Fuc(a1-6)]GlcNAc
# Method in brief: as §1
# [13] = target: Gal(b1-3)GlcNAc(b1-3)Gal(b1-3)GlcNAc
# Method in brief: as §1
# [14] = target: Gal(b1-3)GlcNAc(b1-3)Gal(b1-4)Glc
# Method in brief: as §1
# [15] = target: Gal(b1-3)GlcNAc(b1-3)Gal(b1-4)GlcNAc
# Method in brief: as §1
# [16] = target: Gal(b1-3)[Fuc(a1-4)]GlcNAc
# Method in brief: as §1
# [17] = target: Gal(b1-3)[Fuc(a1-4)]GlcNAc(b1-2)Man(a1-3)[Gal(b1-3)[Fuc(a1-4)]GlcNAc(b1-2)Man(a1-6)]Man(b1-4)GlcNAc(b1-4)GlcNAc
# Method in brief: as §1
# [18] = target: Gal(b1-3)[Fuc(a1-4)]GlcNAc(b1-2)Man(a1-3)[Gal(b1-3)[Fuc(a1-4)]GlcNAc(b1-2)Man(a1-6)]Man(b1-4)GlcNAc(b1-4)[Fuc(a1-6)]GlcNAc
# Method in brief: as §1
# [19] = target: Gal(b1-3)[Fuc(a1-4)]GlcNAc(b1-3)Gal(b1-3)[Fuc(a1-4)]GlcNAc
# Method in brief: as §1
# [20] = target: Gal(b1-3)[Fuc(a1-4)]GlcNAc(b1-3)Gal(b1-4)GlcNAc
# Method in brief: as §1
# [21] = target: Gal(b1-3)[Fuc(a1-4)]GlcNAc(b1-3)Gal(b1-4)[Fuc(a1-3)]GlcNAc
# Method in brief: as §1
# [22] = target: Gal(b1-3)[GlcNAc(b1-6)]GalNAc
# Method in brief: as §1
# [23] = target: Gal(b1-3)[Neu5Ac(a2-6)]GalNAc
# Method in brief: as §1
# [24] = target: Gal(b1-3)[Neu5Ac(a2-6)]GlcNAc(b1-6)Gal(b1-4)Glc
# Method in brief: as §1
# [25] = target: Gal(b1-3)[Neu5Ac(b2-6)]GalNAc
# Method in brief: as §1
# [26] = target: Gal(b1-4)GalNAc(a1-3)[Fuc(a1-2)]Gal(b1-4)GlcNAc
# Method in brief: as §1
# [27] = target: Gal(b1-4)GalNAc(b1-3)[Fuc(a1-2)]Gal(b1-4)GlcNAc
# Method in brief: as §1
# [28] = target: Gal(b1-4)Glc
# Method in brief: as §1
# [29] = target: Gal(b1-4)Glc6S
# Method in brief: as §1
# [30] = target: Gal(b1-4)GlcNAc
# Method in brief: as §1
# [31] = target: Gal(b1-4)GlcNAc(a1-6)Gal(b1-4)GlcNAc
# Method in brief: as §1
# [32] = target: Gal(b1-4)GlcNAc(b1-2)Man(a1-3)Man(b1-4)GlcNAc(b1-4)GlcNAc
# Method in brief: as §1
# [33] = target: Gal(b1-4)GlcNAc(b1-2)Man(a1-3)[Gal(b1-4)GlcNAc(b1-2)Man(a1-6)]Man(b1-4)GlcNAc(b1-4)GlcNAc
# Method in brief: as §1
# [34] = target: Gal(b1-4)GlcNAc(b1-2)Man(a1-3)[Gal(b1-4)GlcNAc(b1-2)Man(a1-6)]Man(b1-4)GlcNAc(b1-4)[Fuc(a1-6)]GlcNAc
# Method in brief: as §1
# [35] = target: Gal(b1-4)GlcNAc(b1-2)Man(a1-3)[Man(a1-6)]Man(b1-4)GlcNAc(b1-4)GlcNAc
# Method in brief: as §1
# [36] = target: Gal(b1-4)GlcNAc(b1-2)Man(a1-6)Man(b1-4)GlcNAc(b1-4)GlcNAc
# Method in brief: as §1
# [37] = target: Gal(b1-4)GlcNAc(b1-2)Man(a1-6)[Man(a1-3)]Man(b1-4)GlcNAc(b1-4)GlcNAc
# Method in brief: as §1
# [38] = target: Gal(b1-4)GlcNAc(b1-2)[Gal(b1-4)GlcNAc(b1-4)]Man(a1-3)[Gal(b1-4)GlcNAc(b1-2)Man(a1-6)]Man(b1-4)GlcNAc(b1-4)GlcNAc
# Method in brief: as §1
# [39] = target: Gal(b1-4)GlcNAc(b1-3)Gal(b1-3)GlcNAc
# Method in brief: as §1
# [40] = target: Gal(b1-4)GlcNAc(b1-3)Gal(b1-4)Glc
# Method in brief: as §1
# [41] = target: Gal(b1-4)GlcNAc(b1-3)Gal(b1-4)GlcNAc
# Method in brief: as §1
# [42] = target: Gal(b1-4)GlcNAc(b1-3)Gal(b1-4)GlcNAc(b1-3)Gal(b1-4)GlcNAc
# Method in brief: as §1
# [43] = target: Gal(b1-4)GlcNAc(b1-3)Gal(b1-4)[Fuc(a1-3)]GlcNAc(b1-3)Gal(b1-4)[Fuc(a1-3)]GlcNAc
# Method in brief: as §1
# [44] = target: Gal(b1-4)GlcNAc(b1-3)GalNAc
# Method in brief: as §1
# [45] = target: Gal(b1-4)GlcNAc(b1-3)[Gal(b1-4)GlcNAc(b1-6)]Gal(b1-4)GlcNAc
# Method in brief: as §1
binder,measurement,setting,value
B1,glycan array binding signal (z-score),[1],-0.363
same,glycan array binding signal (z-score),[2],0.198
same,glycan array binding signal (z-score),[3],-0.295
same,glycan array binding signal (z-score),[4],-0.081
same,glycan array binding signal (z-score),[5],-0.49
same,glycan array binding signal (z-score),[6],0.174
same,glycan array binding signal (z-score),[7],-0.097
same,glycan array binding signal (z-score),[8],0.288
same,glycan array binding signal (z-score),[9],-0.117
same,glycan array binding signal (z-score),[10],-0.002
same,glycan array binding signal (z-score),[11],-0.793
same,glycan array binding signal (z-score),[12],-0.003
same,glycan array binding signal (z-score),[13],-0.674
same,glycan array binding signal (z-score),[14],0.099
same,glycan array binding signal (z-score),[15],-0.222
same,glycan array binding signal (z-score),[16],0.042
same,glycan array binding signal (z-score),[17],5.67
same,glycan array binding signal (z-score),[18],2.26
same,glycan array binding signal (z-score),[19],-0.432
same,glycan array binding signal (z-score),[20],-0.401
same,glycan array binding signal (z-score),[21],0.503
same,glycan array binding signal (z-score),[22],-0.177
same,glycan array binding signal (z-score),[23],0.068
same,glycan array binding signal (z-score),[24],-0.525
same,glycan array binding signal (z-score),[25],-0.535
same,glycan array binding signal (z-score),[26],0.325
same,glycan array binding signal (z-score),[27],-0.717
same,glycan array binding signal (z-score),[28],0.061
same,glycan array binding signal (z-score),[29],-0.387
same,glycan array binding signal (z-score),[30],0.101
same,glycan array binding signal (z-score),[31],-0.538
same,glycan array binding signal (z-score),[32],-0.386
same,glycan array binding signal (z-score),[33],-0.108
same,glycan array binding signal (z-score),[34],-0.496
same,glycan array binding signal (z-score),[35],-0.695
same,glycan array binding signal (z-score),[36],0.708
same,glycan array binding signal (z-score),[37],-0.674
same,glycan array binding signal (z-score),[38],-0.028
same,glycan array binding signal (z-score),[39],0.069
same,glycan array binding signal (z-score),[40],-0.338
same,glycan array binding signal (z-score),[41],-1.03
same,glycan array binding signal (z-score),[42],-0.173
same,glycan array binding signal (z-score),[43],-0.159
same,glycan array binding signal (z-score),[44],0.068
same,glycan array binding signal (z-score),[45],-0.472

# Source: the supplement of paper PMC8728848
